The text below walks through data of PubChem BioAssay AID488969 (Vanderbilt High Throughput Screening Facility, 2010).

In all, about 110,000 compounds were measured (“z-score”: median about -0.1, highest 2% from about 2 on). This is one part of the list. Activity calls are given as the source filed them.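 Rule for the calls: active = z-score in the third read window above 3 or below -3; inactive = the rest.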

The target of this experiment is Metabotropic glutamate receptor 8 (Rattus norvegicus) (UniProt P70579). As to the kind of experiment: rat mGluR8 modulators via GIRK flux, primary screen, cell-based, thallium flux, HTS (AID 488969). The note with it: HEK293 rat mGluR8, GIRK (G protein-gated inwardly rectifying potassium channel) thallium flux, FluoZin2; at 10 µM; stronger effect = higher value; submaximal glutamate (EC20) added with thallium.
Sequence of UniProt P70579 (P70579 whole entry, looked up): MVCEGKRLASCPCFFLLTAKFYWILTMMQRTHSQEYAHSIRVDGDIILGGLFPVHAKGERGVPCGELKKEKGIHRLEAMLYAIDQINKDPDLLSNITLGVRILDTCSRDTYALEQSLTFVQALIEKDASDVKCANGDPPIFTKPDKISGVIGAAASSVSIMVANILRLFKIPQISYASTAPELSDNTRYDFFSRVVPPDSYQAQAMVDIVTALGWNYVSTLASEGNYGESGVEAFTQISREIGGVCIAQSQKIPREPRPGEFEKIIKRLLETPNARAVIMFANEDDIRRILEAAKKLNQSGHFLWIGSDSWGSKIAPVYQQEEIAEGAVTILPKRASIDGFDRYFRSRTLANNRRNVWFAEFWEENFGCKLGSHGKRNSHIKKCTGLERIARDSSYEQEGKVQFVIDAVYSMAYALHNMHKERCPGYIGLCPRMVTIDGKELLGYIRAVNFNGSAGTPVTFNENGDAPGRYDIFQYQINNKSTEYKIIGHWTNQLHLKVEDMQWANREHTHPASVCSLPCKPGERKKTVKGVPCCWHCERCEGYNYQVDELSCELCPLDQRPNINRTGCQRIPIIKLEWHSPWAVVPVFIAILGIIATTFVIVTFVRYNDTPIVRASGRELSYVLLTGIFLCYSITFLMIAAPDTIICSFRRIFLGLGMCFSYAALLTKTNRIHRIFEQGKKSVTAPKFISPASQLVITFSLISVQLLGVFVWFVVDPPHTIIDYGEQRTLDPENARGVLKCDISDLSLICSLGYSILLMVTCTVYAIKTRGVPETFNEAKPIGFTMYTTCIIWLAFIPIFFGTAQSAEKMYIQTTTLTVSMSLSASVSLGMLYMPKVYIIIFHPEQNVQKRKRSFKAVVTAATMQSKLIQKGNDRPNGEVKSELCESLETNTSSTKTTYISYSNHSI
As for `O=C(CSc1nnc(Cc2cc(=O)[nH]c(=O)[nH]2)n1-c1ccccc1)N1CCCc2ccccc21`, the z-score came out at 0.0633. The compound `CCCCOC(=O)C1CCC[C@@H](C)N1` (stereo partly specified) registered a z-score of 0.585. The value for `O=C(CSc1nccc(-c2ccc(Br)cc2)n1)NCCc1ccccc1` was -0.179; that for `CCOC(=O)C1CCN(CC(=O)Nc2c(C(=O)OC)[nH]c3cccc(Cl)c23)CC1` was -0.203; that for `Cc1cccc(C=Nc2ccc3c(c2)oc2ccccc23)c1O` was -0.126. As for `COCc1[nH][nH]c(=O)c1C=Nc1ccc(F)cc1F`, the z-score turned out to be 0.132. `O=C(N/C(=C\c1ccc2c(c1)OCO2)C(=O)N1CCOCC1)c1cccs1` had a z-score of 0.459. As for `O=C(NCc1ccccc1)/C(=C/c1ccc(OC(F)F)cc1)c1ccccc1`, the z-score is -0.247.

For `CCOC(=O)c1ccc(NC(=O)CSCc2ccco2)cc1`, the z-score was -0.177. For `CCN(CC)CCN(C)Cc1ccc(Br)cc1`, the z-score came out at 0.0841.

Take `Cc1ccc2c(c1)cc(CN(Cc1ccco1)S(=O)(=O)c1ccccc1)c1nnnn12`: the z-score was -0.158. With `COc1ccc(C2N(c3cc(Cl)ccc3OC)C(=O)C3CCCN32)cc1` (stereo unspecified), the z-score is -0.0897. For the compound `O=C(NCCc1nc(-c2ccccc2)cs1)c1ccc(Br)cc1`, the z-score was -0.406.

In turn, `Cc1ccc(N(C(=O)Cn2nnc(-c3ccc(C)o3)n2)C(C(=O)NC2CCCC2)c2ccco2)cc1` (stereo unspecified) yielded a z-score of 0.235. Then `CC(=O)Nc1ccc(/C(C)=N/NS(=O)(=O)c2ccc(C)cc2)cc1`, with -0.422. For `Cc1ccc(CN=C2Nc3ccccc3CS2)cc1`, the z-score is -0.225.

Regarding `c1ccc(CN2C3=NCCCN3c3ccccc32)cc1`, the z-score stood at 2.93.

For `COc1ccc2nc(-c3ccccc3)[nH]c2c1`, the z-score was -0.00455. As for `C=CCN1C(=O)NC2(O)C(=O)c3ccccc3C12O` (stereo unspecified), the z-score stood at 0.455.

With `Cc1ccc(C(=O)C(OC(=O)CNS(=O)(=O)c2ccccc2)c2ccccc2)cc1` (stereo unspecified), the z-score was -0.353. In the case of `COc1cc(CNCCCN2CCOCC2)ccc1OCC(=O)Nc1cccc(C(F)(F)F)c1`, the z-score came out at 0.352. Then `Cc1ccc2cc(CN(Cc3ccc4c(c3)OCO4)Cc3nnnn3Cc3ccco3)c(=O)[nH]c2c1C`, with -0.474; and `CCCCn1cc(C(C)(C)C)c(C#N)c1NC(C)=O`, with -0.17. With `COC(=O)c1c(O)cc(C(C)(C)C)n(-c2ccc(F)cc2)c1=O`, the z-score is 0.192. `Cc1ccc(S(=O)(=O)NCC(=O)OCc2nnc(-c3ccccc3)o2)cc1C`: the z-score is -2.83.

Regarding `Cc1ccc(-c2nnc(SCC(=O)N3CCN(c4ccccc4)CC3)o2)cc1`, the z-score is -1.07. Then `CCNC(=O)COc1cc(C)c(Cl)c(C)c1`, with -0.203; and `Nn1c(COc2ccccc2)nnc1SCC(=O)O`, with 0.451; and `CCC(=O)Nc1ccc(S(=O)(=O)Nc2ncccn2)cc1`, with 0.251. For the compound `O=C1CC(N2CCN(c3ccccc3)CC2)C(=O)N1c1ccc2c(c1)OCCO2` (stereo unspecified), the z-score is -0.0551. As to `NC(=S)Nn1c(CCC(=O)O)ccc1-c1ccccc1`, the z-score turned out to be 0.124. For the compound `COc1cc2c(N3CCOCC3)cc(O)c(CC(=O)Nc3ccccc3)c2cc1OC`, the z-score stood at 0.761. Take `O=[N+]([O-])c1ccc(N2CCN(C(=S)NC3CCCCC3)CC2)cc1`: the z-score is -0.459. `O=C(CSc1nnc(-c2ccncc2)n1Cc1ccco1)Nc1nccs1` yielded a z-score of 0.049.

On to `CC1(C)Cc2ccccc2-c2nnc(-c3ccc(O)cc3)n21`, for which the z-score was -0.112. Turning to `COc1cc(-c2nnc(-c3ccccc3)o2)cc(OC)c1OC`, the z-score is -0.974. As for `Cc1ccc(/C=N/NC(=O)CC(=O)NCc2cccnc2)cc1`, the z-score is -0.106. Then `Cc1cc(=O)[nH]c2ccc(Cl)cc12`, with 0.699. `COc1ccc(N(CC(=O)N2CCc3ccccc3C2)S(C)(=O)=O)cc1` yielded a z-score of 0.0342. The value for `O=C(c1ccccc1)c1nc2ccccc2n(CCCn2c(=O)c(C(=O)c3ccccc3)nc3ccccc32)c1=O` was 1.05; that for `Cc1ccc(-n2nnnc2SCC(=O)Nc2c(C)n(C)n(-c3ccccc3)c2=O)cc1` was 0.269. Turning to `COc1ccc(OC)c(NC(=O)C2CC(C)=C(C)CC2C(=O)O)c1` (stereo unspecified), the z-score was -0.452. Regarding `Cc1cc(-c2c(C)[nH]n(-c3ccccc3)c2=O)n(-c2ccccc2)n1`, the z-score is -0.186. With `Cc1nc2ccccc2c2c1C(=O)N(Cc1cccnc1)C2=O`, the z-score is -0.146.

With `CCCc1cc(=O)[nH]c(SCc2ccc(C#N)cc2)n1`, the z-score was -1.26.

The compound `O=C(NCc1ccccn1)c1ccc(Cl)s1` gave a z-score of 0.0151. As for `Cc1cc(N/N=C/c2ccc(O)c(C)c2O)nc(-c2ccccc2O)n1`, the z-score was -0.0442. Then `CN1CCC(OC(=O)c2cccc(Br)c2)CC1`, with 0.151.

Regarding `O=C(COC(=O)C12CC3CC(CC(C3)C1)C2)NCCc1ccccc1`, the z-score is -0.177. For the compound `O=C(N/N=C/c1ccc([N+](=O)[O-])s1)c1cccc(Br)c1`, the z-score was active: 6.96. `Cc1ccc(N=Nc2c(C)[nH][nH]c2=O)c(C)c1` returned a z-score of 0.772. For the compound `O=C(NCCCO)Nc1ccc2nc(-c3ccco3)c(-c3ccco3)nc2c1`, the z-score was 0.111. For the compound `c1ccc(Cc2nnc3sc(-c4cccnc4)nn23)cc1`, the z-score was -0.104. `O=C(CCCN1C(=O)c2ccccc2C1=O)NCc1cccnc1` displayed a z-score of 0.675.

For the compound `O=C(NN1C(=O)C2C(C1=O)C1C=CC2C12CC2)c1ccncc1` (stereo unspecified), the z-score was -0.195. Regarding `C=CCNC(=O)c1cc(Cl)ccc1[N+](=O)[O-]`, the z-score is -0.495. With `CCCCc1nc2ccccc2c(C(=O)O)c1C`, the z-score is -0.453. Consider `Cc1ccc(S(=O)(=O)Nc2ccc(Cl)cc2)cc1NC(=O)Cn1cnc2c1c(=O)n(C)c(=O)n2C`, for which the z-score was -0.355. As for `Cc1cccc2c(=O)n3c(nc12)CCCCC3`, the z-score was -0.287.

As for `COc1ccc2[nH]c3nc(SCC(=O)NNC(=O)c4ccc(OC)c(OC)c4)nnc3c2c1`, the z-score was determined as 0.0876. With `CC1CCCN(CCC(=O)Nc2ccc3c(c2)CCC3)C1` (stereo unspecified), the z-score stood at 0.205. Consider `CCOC(=O)c1cc2ccccc2n1CCN(CC)CC`, for which the z-score amounted to 0.431. For `CC(=O)N1CCc2cc(S(=O)(=O)Nc3ccccc3N3CCN(C)CC3)ccc21`, the z-score is 0.539.

`CN(CCO)c1cc(N2CCN(C(=O)c3ccco3)CC2)c2nonc2c1[N+](=O)[O-]`: the z-score was -0.172. For the compound `CCOc1ccc(OCC)c(NC(=O)Nc2ccc3c(c2)N(C)C(=O)CS3)c1`, the z-score is -2.61. The value for `Cc1ccc(S(=O)(=O)N2CCOCC2)cc1C(=O)Nc1nc(-c2cccnc2)cs1` was 0.271; that for `CCN(CC)S(=O)(=O)c1cc(C(=O)OCC(=O)Nc2cccc(C)c2C)ccc1F` was -1.28. In turn, `CCSc1nnc(NC(=O)C2Cc3ccccc3CN2C(=O)c2ccco2)s1` (stereo unspecified) displayed a z-score of 0.124.

The compound `CSc1ccc(Cl)c(C(=O)NCCOc2ccccc2)c1` displayed a z-score of 0.236. Take `COC(=O)c1ccc(N(C(=O)c2ccco2)C(C(=O)NC2CCCC2)c2ccco2)cc1` (stereo unspecified): the z-score was -0.539. In the case of `Cn1c(CSc2nc3ccc(Br)cc3[nH]2)nc2ccccc21`, the z-score is -0.946.
